Experimental data published in PMC4336329 (PLoS ONE, 2015).
The campaign covered roughly 310,000 compounds. About 14,000 (4.5%) showed an effect of 50% or more. The effect is printed as a negative number. The list shows a part of the results.

The molecules below were run against human ether-à-go-go-related gene (hERG) potassium channel (human, UniProt Q12809) (assay: primary screen, population patch clamp on CHO cells stably expressing hERG).
Method: Briefly, Chinese hamster ovary (CHO) cells stably expressing the hERG channel were dislodged from tissue culture flasks and dispensed into PPC plates. […] During the recording, background leak currents were estimated by a 100 ms step to -80 mV from an initial holding potential of -70 mV and subtracted from the subsequent current measurement. The campaign was conducted in two phases using slight differences in recording protocol. In the first phase, the initial voltage pulse used a 100 ms step to -30 mV from a holding potential of -70 mV, a 2 s conditioning step to +25 mV, and a 2 s test step to -30 mV. During the second phase of the screen, the potential during the conditioning step was raised to +45 mV. In both phases of the campaign, a secondary voltage pulse was applied using the same parameters as the second phase initial pulse. The initial and secondary pulses were applied in the absence of compound, and upon application of 1 μM and 10 μM test concentrations. […]
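Also: peak tail current of the secondary pulse compared with the same well before compound.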

human ether-à-go-go-related gene (hERG) potassium channel, sequence (Q12809 whole entry, looked up): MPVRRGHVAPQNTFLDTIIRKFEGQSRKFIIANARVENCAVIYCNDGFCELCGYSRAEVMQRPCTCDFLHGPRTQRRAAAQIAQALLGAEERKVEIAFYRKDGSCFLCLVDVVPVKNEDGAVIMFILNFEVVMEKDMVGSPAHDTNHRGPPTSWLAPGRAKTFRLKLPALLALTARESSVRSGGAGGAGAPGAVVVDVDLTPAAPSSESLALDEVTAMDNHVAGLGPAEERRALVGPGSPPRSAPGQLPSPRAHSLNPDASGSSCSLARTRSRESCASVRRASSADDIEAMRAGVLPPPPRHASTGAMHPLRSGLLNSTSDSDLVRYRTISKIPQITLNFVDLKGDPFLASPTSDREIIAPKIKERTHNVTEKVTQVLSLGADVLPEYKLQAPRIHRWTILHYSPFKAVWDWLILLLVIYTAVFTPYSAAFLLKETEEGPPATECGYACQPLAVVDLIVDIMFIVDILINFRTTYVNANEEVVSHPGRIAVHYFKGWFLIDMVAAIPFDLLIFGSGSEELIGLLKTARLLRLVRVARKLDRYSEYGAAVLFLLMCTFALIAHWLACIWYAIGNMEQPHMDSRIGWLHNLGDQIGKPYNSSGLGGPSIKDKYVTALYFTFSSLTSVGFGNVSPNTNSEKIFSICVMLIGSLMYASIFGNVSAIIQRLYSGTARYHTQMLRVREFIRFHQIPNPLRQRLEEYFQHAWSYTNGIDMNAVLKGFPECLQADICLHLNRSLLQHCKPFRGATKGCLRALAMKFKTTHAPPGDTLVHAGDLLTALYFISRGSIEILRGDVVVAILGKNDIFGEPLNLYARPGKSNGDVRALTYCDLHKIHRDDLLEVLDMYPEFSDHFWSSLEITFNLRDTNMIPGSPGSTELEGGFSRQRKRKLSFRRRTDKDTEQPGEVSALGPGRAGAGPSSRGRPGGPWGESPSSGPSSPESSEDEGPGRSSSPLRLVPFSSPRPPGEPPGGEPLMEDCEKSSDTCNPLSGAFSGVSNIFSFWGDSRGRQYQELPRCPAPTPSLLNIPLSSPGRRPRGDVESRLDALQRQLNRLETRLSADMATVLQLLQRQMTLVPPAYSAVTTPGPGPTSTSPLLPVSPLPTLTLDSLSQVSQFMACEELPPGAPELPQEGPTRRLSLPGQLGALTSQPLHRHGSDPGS

SMILES | hERG current change (%, negative = inhibition) at 10uM
C=CCN1C(=O)N(c2ccccc2)C(=O)C1CC(=O)Nc1ccc(OC)cc1 (stereo not shown) | 15.6%
Cc1sc(NC(=S)NC(=O)c2ccc(C(C)(C)C)cc2)c(C#N)c1C | 6.48%
CCn1c(SCC(=O)Nc2nccs2)nnc1-c1ccncc1 | 10.8%
Cc1cccc(C(=O)N2CCC(c3nc(-c4ccc(S(=O)(=O)N5CCOCC5)cc4)no3)CC2)c1 | -3.33%
CCN1C(=O)/C(=C/N(C)c2ccccc2)OC1=S | -8.25%
NC(=S)c1c(Cl)cc(C(F)(F)F)cc1Cl | 9.27%
CCCN(CCC)C(=O)CSc1nc2n[nH]c(C)c2c(=N)n1-c1ccc(OCC)cc1 | 2%
CC(C)(C)CC(=O)Nc1cc2c3c(c1)CC(=O)N3CCC2 | 14.6%
O=C(NCc1ccc2c(c1)OCO2)c1cccc(F)c1 | 7.11%
S=c1[nH]nc(-c2ccccc2Br)n1Cc1ccccc1 | 13.4%
O=C(NCc1cccs1)C1CCCCC1 | -3.44%
OCCOCCn1c2ccccc2c2ccccc21 | -7.23%
Cn1c(=O)c2c(nc(NCc3ccco3)n2Cc2ccccc2Cl)n(C)c1=O | 13.2%
Cc1ccc2nc(-c3ccccc3)c(-c3ccccc3)nc2c1 | 5.97%
COc1nc(NCCO)nc(Nc2ccc([N+](=O)[O-])cc2)n1 | -40.2%
CC(C)Oc1ccc(C(=O)Nc2nnc(C3=COCCO3)o2)cc1 | -21.6%
CCn1ncc(S(=O)(=O)NCc2ccccc2Cl)c1C | 5.66%
Cc1cc(Br)ccc1SCC(=O)OC/C(O)=C(\C#N)c1nc2ccccc2[nH]1 | 2.31%
CC(NC(=O)CN(Cc1ccccc1)S(=O)(=O)c1ccccc1)c1cccnc1 (stereo not shown) | -15.8%
CN1N=C(C(=O)N2CCN(c3ccc([N+](=O)[O-])cc3)CC2)CCC1=O | -73%

SMILES | hERG current change (%, negative = inhibition) at 10uM
COCc1ccc(-c2ccc3c(c2)c(C#Cc2ccsc2)c(-c2cc(OC)cc(OC)c2)n3C)cc1 | 6.72%
CC1(c2ccccc2)NC(=O)N(CC(=O)Nc2ccc(N3CCOCC3)cc2N2CCOCC2)C1=O (stereo not shown) | 6.74%
O=C(CN1C(=O)NC2(CCc3ccccc32)C1=O)Nc1ccc(Br)cc1F (stereo not shown) | -11.3%
COCC(C)OC(=O)c1c(N)n(CC(C)C)c2nc3ccccc3nc12 (stereo not shown) | -67.8%
CC1CCCN(C(=S)NC2CCCC2)C1 (stereo not shown) | 18.3%
CCOC(=O)c1c(C)[nH]c(C)c1S(=O)(=O)NCCCN1CCOCC1 | 5.1%
CCCc1cc(=O)n2[nH]c(-c3ccco3)nc2n1 | 12.8%
CC(C)C(=O)Nc1cccc(C(=O)NCc2ccc3c(c2)OCO3)c1 | -14.8%
CC(=O)c1c(C)[nH]c(C(=O)CSc2ccc(F)cc2)c1C | 2.62%
Oc1ccccc1-c1cc(-c2ccccc2)no1 | 13.9%
CCOc1cc(/C=C2/C(=N)N3C(=NC2=O)SN=C3S(=O)(=O)C(C)C)ccc1OC(=O)c1ccco1 | 3.02%
COC(CN(C)C(=O)c1cn(C)c2ccc(S(=O)(=O)N(C)C3CCCCC3)cc2c1=O)OC | 10.3%
CCOC(=O)CN1C(=O)c2ccccc2C1=O | 14.2%
COc1ccc(N2CCN(S(=O)(=O)c3ccc(Cl)c(C(F)(F)F)c3)CC2)cc1 | 0.858%
CCOC(=O)c1csc(NNC=O)n1 | 6.73%
Cc1ccccc1NC(=O)c1c(C)nn(-c2ccccc2)c1Cl | -9.14%
O=C(O)c1cc(S(=O)(=O)N2CCCCC2)ccc1Cl | -2.16%
O=C(c1ccc(Cl)cc1)C1CCCN(Cc2ccc3nonc3c2)C1 (stereo not shown) | -34.9%
Cc1ccc(C(=O)n2cnnc2N)cc1C | -0.0756%
O=C(CCN1C(=O)S/C(=C/c2ccccc2)C1=O)Nc1ccc(C(=O)O)c(O)c1 | 22.7%

SMILES | hERG current change (%, negative = inhibition) at 10uM
c1ccc(Oc2cc(-c3ccccc3)ncn2)cc1 | -9.9%
Cc1ccc2cc(CN(CC3CCCO3)C(=S)Nc3ccccc3)c(=O)[nH]c2c1 (stereo not shown) | -37%
Cc1ccccc1Nc1nc(Cl)c(C=O)s1 | -8.73%
COc1ccc(N2CCN(C(=O)CCC(=O)N3Cc4ccccc4Oc4ncccc43)CC2)cc1 | -48.4%
CC(C)(CNS(C)(=O)=O)SCc1ccc(Cl)cc1 | 0.17%
Cc1csc2c(=O)n(CCO)c(=O)[nH]c12 | 12.3%
Cc1cc(C(=O)c2ccccc2)c(NC(=O)CCl)s1 | 3.14%
Cc1cccc(-c2noc(CN(C(=O)C(c3ccccc3)c3ccccc3)C(C)C)n2)c1 | -7.56%
CCOc1cc(S(=O)(=O)N2CCN(Cc3ccccc3)CC2)ccc1Br | -10.1%
Cc1ccccc1CNC(=O)C1CCN(c2nnc(N3CCCC3=O)s2)CC1 | 19.3%
CCOC(=O)CC(=O)Nc1nnc(CC(C)C)s1 | -1.6%
O=C1c2ccccc2C(=O)N1OCc1ccc(Cl)cc1 | 7.45%
Cc1ccc(-n2c(-c3ccco3)nc3c(cnn3-c3ccc(C)cc3)c2=O)cc1 | 14.2%
CN1/C(=C\C(=O)Nc2ccc(Cl)cc2)C(C)(C)c2ccccc21 | 21.2%
CCOc1ccc(NC(C(=O)Nc2cccc(C(C)=O)c2)c2ccccc2)cc1 (stereo not shown) | -49.7%
CCOc1ccc(NC(=O)c2ccccc2OC)cc1 | 15.8%
COc1cc2cc(C#N)c(SCC(=O)N3CCOCC3)nc2cc1OC | -0.169%
O=C(Nc1ccccc1)C1CC(=O)N(c2ccc3c4c(cccc24)CC3)C1 (stereo not shown) | 2.77%
